# “And” between values parts separate entries of the source, which are not always exact repeats. Equal values may be shown once. The inconclusive results got no clear call from the source; some entries with a clear call stand among them for comparison. For some assays here: Potencies of inconclusive entries are doubtful fits and often do not repeat. The source made the active and inactive calls. Unless noted, calls come from the whole dose curve; as a rule, active = well fitted curve in the direction sought with a large enough effect; inconclusive = small, poorly fitted or top-dose-only effect, or another doubt; inactive = no such curve, though single readings can be large; an effect the other way counts as inactive or inconclusive.
# Key:
# [1] = molecular target: D(1A) dopamine receptor (Homo sapiens) (UniProt P21728); experiment: HTS Assay for Allosteric Agonists of the Human D1 Dopamine Receptor: Primary Screen for Potentiators (AID 488982)
# UniProt P21728, sequence (P21728 whole entry, looked up): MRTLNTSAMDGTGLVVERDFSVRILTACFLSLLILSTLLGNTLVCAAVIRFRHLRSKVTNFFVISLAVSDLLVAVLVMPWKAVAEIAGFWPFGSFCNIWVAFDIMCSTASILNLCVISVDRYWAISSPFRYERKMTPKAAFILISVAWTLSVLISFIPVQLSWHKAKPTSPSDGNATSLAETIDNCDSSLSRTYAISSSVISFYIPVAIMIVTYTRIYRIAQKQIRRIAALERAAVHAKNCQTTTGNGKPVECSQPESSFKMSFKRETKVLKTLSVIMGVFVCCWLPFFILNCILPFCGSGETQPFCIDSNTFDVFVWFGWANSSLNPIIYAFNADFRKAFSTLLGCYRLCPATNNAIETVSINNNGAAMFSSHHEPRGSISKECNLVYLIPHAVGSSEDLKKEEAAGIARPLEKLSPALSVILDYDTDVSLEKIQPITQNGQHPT
# Procedure, shortened: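 Tetracycline-induced HEK293 Trex D1 cells with forced coupling to calcium, loaded with no-wash calcium dye; kinetic fluorescence read 180 s after compound addition for agonism, then a further 180 s after an EC20 dopamine challenge for potentiation.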
# [2] = Validation screen for small molecules that induce DNA re-replication in SW480 colon adenocarcinoma cells (AID 504364)
# Procedure, shortened: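 Read-out: total Hoechst intensity of nuclei by fluorescence scanning imager; hits raise the fraction of nuclei with elevated DNA content. Cells received compound for 48 hr at 37 C before a 40 min stain.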
# [3] = molecular target: Ubiquitin carboxyl-terminal hydrolase 1 (Homo sapiens) (UniProt O94782); experiment: Inhibitors of USP1/UAF1: Pilot qHTS (AID 504865);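 note: rhodamine fluorescence freed from ubiquitin-rhodamine substrate followed over time; nearly all actives have a fitted effect of over 35% in size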
# UniProt O94782, sequence (O94782 whole entry, looked up): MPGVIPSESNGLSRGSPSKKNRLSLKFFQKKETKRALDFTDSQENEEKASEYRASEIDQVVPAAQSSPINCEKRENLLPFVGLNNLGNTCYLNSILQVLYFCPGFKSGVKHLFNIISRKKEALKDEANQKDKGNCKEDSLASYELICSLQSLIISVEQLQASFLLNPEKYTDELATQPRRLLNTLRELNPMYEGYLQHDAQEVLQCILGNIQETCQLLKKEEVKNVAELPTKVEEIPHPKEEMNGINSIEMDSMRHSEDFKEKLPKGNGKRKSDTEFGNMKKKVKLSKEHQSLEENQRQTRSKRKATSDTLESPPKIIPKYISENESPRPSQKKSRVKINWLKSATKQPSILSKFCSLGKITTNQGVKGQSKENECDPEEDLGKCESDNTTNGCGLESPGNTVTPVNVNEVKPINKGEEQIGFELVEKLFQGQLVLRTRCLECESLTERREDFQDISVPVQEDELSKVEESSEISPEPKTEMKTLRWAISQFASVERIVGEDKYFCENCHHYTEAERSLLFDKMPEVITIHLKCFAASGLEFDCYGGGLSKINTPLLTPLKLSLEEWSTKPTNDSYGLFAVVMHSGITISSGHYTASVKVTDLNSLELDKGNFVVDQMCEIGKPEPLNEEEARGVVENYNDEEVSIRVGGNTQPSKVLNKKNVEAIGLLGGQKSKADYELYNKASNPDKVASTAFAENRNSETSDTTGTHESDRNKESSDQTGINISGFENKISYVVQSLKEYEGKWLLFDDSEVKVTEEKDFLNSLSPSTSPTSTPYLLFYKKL
# Procedure, shortened: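 USP1/UAF1 complex (1nM) preincubated with compound 15 min at room temperature, then Ub-Rho substrate (150nM final) added. Fluorescence read kinetically at 480/540 nm, 6 reads every 60 seconds. Buffer: 50mM HEPES pH 7.8, 0.5mM EDTA, 0.1 mg/ml BSA, 1mM TCEP, 0.01% Tween-20.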
# [4] = molecular target: ATP-dependent 6-phosphofructokinase (Trypanosoma brucei brucei) (UniProt O15648); experiment: qHTS Assay to Find Inhibitors of T. brucei phosphofructokinase: hit validation (AID 492961)
# UniProt O15648, sequence (O15648 whole entry, looked up): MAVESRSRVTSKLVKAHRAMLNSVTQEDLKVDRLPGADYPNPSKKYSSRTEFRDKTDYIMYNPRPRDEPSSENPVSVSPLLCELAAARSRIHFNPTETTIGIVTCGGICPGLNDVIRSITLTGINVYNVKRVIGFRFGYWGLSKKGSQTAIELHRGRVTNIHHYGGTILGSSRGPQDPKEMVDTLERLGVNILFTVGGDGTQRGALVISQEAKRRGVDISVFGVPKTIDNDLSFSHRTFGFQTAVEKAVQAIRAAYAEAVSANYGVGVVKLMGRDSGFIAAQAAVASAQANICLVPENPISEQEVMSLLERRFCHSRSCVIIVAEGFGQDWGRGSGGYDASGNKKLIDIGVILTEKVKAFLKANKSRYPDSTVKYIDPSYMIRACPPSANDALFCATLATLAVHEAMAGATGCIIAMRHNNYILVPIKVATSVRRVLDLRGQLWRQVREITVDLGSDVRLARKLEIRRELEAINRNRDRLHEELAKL
# Procedure, shortened: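 Luminescence from ADP-Glo reports ADP generated as T. brucei PFK (1.25 nM) phosphorylates 0.5 mM fructose-6-phosphate using 0.1 mM ATP. Reactions ran 45 min at room temperature, pH 8.0.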
# [5] = molecular target: ATPase family AAA domain-containing protein 5 (Homo sapiens) (UniProt Q96QE3); experiment: Validation screen for small molecules that inhibit ELG1-dependent DNA repair in human embryonic kidney (HEK293T) cells expressing luciferase-tagged ELG1 (AID 493107); details: HEK293T ELG1-luciferase level, luminescence, 5-fluorouridine co-treatment, 16 h; series mostly up to 46.1 µM; note: nearly all actives have a fitted effect of over 70% in size
# UniProt Q96QE3, sequence (Q96QE3 whole entry, looked up, the tested form may be a part): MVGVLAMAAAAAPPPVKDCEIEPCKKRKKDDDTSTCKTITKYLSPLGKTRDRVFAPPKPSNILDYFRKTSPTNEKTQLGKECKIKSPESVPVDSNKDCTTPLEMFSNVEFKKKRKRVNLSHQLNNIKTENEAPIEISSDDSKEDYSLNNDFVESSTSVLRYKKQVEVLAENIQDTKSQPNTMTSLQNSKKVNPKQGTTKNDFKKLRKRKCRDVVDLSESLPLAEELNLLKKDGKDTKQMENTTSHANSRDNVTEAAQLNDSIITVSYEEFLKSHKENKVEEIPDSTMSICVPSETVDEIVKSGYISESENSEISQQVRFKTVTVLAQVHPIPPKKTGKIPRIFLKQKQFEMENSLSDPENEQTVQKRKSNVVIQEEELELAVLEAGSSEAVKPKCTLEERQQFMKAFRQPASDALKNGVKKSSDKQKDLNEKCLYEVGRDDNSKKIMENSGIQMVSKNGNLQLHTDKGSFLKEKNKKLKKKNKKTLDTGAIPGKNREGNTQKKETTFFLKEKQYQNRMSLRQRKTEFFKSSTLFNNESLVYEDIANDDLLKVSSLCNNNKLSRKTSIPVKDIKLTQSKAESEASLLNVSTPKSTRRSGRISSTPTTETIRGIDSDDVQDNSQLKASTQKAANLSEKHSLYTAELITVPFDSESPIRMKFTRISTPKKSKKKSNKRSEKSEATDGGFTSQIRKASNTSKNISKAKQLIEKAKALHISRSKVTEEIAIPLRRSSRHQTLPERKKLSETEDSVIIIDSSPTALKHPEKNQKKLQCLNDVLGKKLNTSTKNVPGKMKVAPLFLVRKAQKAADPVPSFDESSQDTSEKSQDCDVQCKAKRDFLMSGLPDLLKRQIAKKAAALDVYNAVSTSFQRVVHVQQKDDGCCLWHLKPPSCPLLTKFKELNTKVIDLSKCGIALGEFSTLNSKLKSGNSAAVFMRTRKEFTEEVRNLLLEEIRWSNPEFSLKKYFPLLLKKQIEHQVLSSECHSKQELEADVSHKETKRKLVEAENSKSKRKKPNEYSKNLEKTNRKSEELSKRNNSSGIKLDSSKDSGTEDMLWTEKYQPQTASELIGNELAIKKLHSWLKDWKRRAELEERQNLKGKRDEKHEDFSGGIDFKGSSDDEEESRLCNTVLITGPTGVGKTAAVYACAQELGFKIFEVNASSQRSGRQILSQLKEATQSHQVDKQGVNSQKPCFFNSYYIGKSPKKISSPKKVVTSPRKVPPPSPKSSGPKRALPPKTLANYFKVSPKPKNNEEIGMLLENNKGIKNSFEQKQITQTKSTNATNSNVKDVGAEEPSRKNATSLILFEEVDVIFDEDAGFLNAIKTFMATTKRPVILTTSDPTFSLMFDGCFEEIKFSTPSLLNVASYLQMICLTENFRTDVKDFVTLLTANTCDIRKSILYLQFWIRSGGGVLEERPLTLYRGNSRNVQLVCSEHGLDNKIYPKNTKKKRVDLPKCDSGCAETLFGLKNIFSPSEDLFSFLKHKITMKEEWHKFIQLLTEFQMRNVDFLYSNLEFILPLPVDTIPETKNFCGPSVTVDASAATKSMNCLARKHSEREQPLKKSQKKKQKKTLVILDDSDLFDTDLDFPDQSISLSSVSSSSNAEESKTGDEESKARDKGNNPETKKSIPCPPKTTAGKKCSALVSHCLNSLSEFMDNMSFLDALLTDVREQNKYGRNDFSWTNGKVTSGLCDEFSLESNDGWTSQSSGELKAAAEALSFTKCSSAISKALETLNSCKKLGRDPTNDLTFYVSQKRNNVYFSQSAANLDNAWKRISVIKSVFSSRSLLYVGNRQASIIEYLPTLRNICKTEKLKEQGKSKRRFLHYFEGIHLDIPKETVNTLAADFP
# Procedure, shortened: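 ELG1-luciferase HEK293T reporter; 5-fluorouridine + compound/DMSO, 16 hr, 37 °C, 5% CO2; ONE-Glo 30 min RT; luminescence read, qHTS format.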
# [6] = Validation screen for small molecules that induce genotoxicity in human embryonic kidney (HEK293T) cells expressing luciferase-tagged ELG1 (AID 493106)
# Procedure, shortened: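 qHTS format; 2,000 HEK293T ELG1-luc cells/well; 23 nL compound via pin tool; 16 hr, 37 °C/5% CO2; ONE-Glo, 30 min RT; luminescence read.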
# [7] = molecular target: Galactokinase (Homo sapiens) (UniProt P51570); experiment: qHTS Validation Assay for Inhibitors of Human Galactokinase (GALK) (AID 493189)
# UniProt P51570, sequence (P51570 whole entry, looked up): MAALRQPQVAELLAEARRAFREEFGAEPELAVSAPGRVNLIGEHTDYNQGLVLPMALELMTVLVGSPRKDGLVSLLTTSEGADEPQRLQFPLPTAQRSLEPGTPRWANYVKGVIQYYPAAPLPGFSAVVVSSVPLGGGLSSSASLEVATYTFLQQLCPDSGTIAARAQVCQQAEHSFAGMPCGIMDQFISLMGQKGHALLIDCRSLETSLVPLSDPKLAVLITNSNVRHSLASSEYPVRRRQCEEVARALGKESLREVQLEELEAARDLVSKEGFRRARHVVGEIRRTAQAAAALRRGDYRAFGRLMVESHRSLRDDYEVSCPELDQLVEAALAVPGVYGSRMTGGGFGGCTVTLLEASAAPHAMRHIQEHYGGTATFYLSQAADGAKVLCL
# Procedure, shortened: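 GALK (5 nM) with 35 uM ATP and 100 uM galactose in HEPES pH8.0, MgCl2, NaCl, DTT, BSA; 1 h at room temperature. Residual ATP read by Kinase-Glo Plus luminescence after 10 min.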
# [8] = molecular target: Phosphoglycerate kinase, glycosomal (Trypanosoma brucei brucei) (UniProt P07378); experiment: qHTS Validation Assay to Find Inhibitors of Phosphoglycerate Kinase (AID 504547)
# Procedure, shortened: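 Compounds are pinned into the substrate/PGK mixture, and GAPDH (100nM final) is added to start the reaction by producing 1,3-BPG. After 60 minutes at room temperature, Kinase-Glo Plus is added and luminescence is measured 10 minutes later.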
# [9] = molecular target: phosphoglycerate mutase (Leishmania major) (UniProt Q4Q090); experiment: qHTS Validation Assay to Find Inhibitors of Phosphoglycerate Mutase (AID 504548); details: Potency: inhibition qHTS
# Procedure, shortened: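 L. major PGAM (1.25nM final) was added to substrate buffer and pinned compound, incubated 45 minutes at room temperature, then Kinase-GloPlus added; luminescence read after 10 minutes. Buffer: 100 mM TEA pH 7.6, 5 mM MgCl2, 0.01% Tween-20.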
# [10] = qHTS for Inhibitors of ATXN expression: Validation of Cytotoxic Assay (AID 588349)
# Procedure, shortened: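 Cytotoxicity counter-screen: HEK293 cells exposed to compound titrations, 72 hr, 37 degrees C. Read-out is intracellular ATP (CellTiter Glo luminescence) as a viability measure.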
# [11] = qHTS for Inhibitors of ATXN expression: Validation (AID 588378); note: nearly all actives have a fitted effect of over 75% in size
# Procedure, shortened: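 Luminescence from an ATXN2-FFLuc reporter in HEK293 cells served as read-out after 24 h compound treatment at 37 degrees C; CellTiter-Fluor fluorescence was recorded first to assess viability.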
# [12] = molecular target: DNA dC->dU-editing enzyme APOBEC-3G (Homo sapiens) (UniProt Q9HC16); experiment: qHTS for inhibitors of Vif-A3G interactions: Validation (AID 588379); details: Vif-A3G protein interaction assay
# UniProt Q9HC16, sequence (Q9HC16 whole entry, looked up): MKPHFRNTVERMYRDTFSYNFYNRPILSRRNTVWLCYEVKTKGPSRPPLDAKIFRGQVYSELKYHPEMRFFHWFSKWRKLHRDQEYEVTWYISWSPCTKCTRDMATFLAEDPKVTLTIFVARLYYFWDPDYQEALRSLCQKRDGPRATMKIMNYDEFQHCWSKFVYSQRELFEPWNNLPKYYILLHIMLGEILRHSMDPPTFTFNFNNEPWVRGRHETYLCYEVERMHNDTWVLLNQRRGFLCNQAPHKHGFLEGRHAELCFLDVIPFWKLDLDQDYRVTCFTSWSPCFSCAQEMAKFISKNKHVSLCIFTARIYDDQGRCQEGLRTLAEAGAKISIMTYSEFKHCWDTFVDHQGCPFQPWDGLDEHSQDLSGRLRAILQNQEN
# Procedure, shortened: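 Yellow fluorescence (Ex 488, Em 500-530) of Vif-coexpressing HeLa A3G-eYFP cells, scanned by Acumen cytometer, reports blocked A3G degradation. Cells plated at 700/well overnight at 37 deg C before compound addition, then a further overnight compound incubation at 37 deg C.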
# [13] = molecular target: Peptidyl-prolyl cis-trans isomerase NIMA-interacting 1 (Homo sapiens) (UniProt Q13526); experiment: qHTS Validation Assay to Find Inhibitors of Pin1 (AID 504536; active = well fitted inhibition curve with a large enough effect in the polarisation, with a control signal flat, not every such curve was filed as active; inconclusive = small, poorly fitted or top-dose-only effect, or effect the other way; the % refers to the polarisation)
# UniProt Q13526, sequence (Q13526 whole entry, looked up): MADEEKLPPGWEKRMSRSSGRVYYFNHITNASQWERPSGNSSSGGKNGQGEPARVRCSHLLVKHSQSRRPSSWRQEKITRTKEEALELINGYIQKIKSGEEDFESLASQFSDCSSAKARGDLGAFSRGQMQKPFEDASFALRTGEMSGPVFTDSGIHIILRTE
# Procedure, shortened: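 Fluorescence polarization competition: compounds (titration) displace HiFluor-488-labeled Pin1-1b peptide from Pin1 (0.3 uM final) in pH 7.5 HEPES buffer with DTT, 10 min at room temperature; %Activity normalized to no-enzyme wells, curves fitted.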
# [14] = qHTS for Inhibitors of Cell Surface uPA Generation: Validation Assay (AID 493164); details: mouse cells, plasminogen activation
# Procedure, shortened: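 Compounds are titrated over seven points (2.45 nM–38.3 uM final) onto pre-plated RAW 264.7 cells and incubated for 18 h. Retained intracellular ATP, measured with ATP-Lite, indicates blocked lethal factor entry.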
# [15] = Nrf2 qHTS screen for inhibitors: Validation (AID 493153; active = well fitted inhibition curve with a large enough effect in the main read-out, with a control signal flat, not every such curve was filed as active; inconclusive = small, poorly fitted or top-dose-only effect, or effect the other way, or a change in a side signal; inactive = no such curve, though single readings can be large or run the other way)
# Procedure, shortened: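 Concentration-response test in A549 ARE_Fluc reporter cells (5% FBS OPTI-MEM), compound exposure 18-24 h at 37°C, 5% CO2. Cell viability measured first by CellTiter-Fluor fluorescence; ARE-driven luciferase luminescence then measured as Nrf2 activity.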
# Potency is the fitted concentration of half-maximal effect; tags give direction and shape of the fitted curve or compound fluorescence and quenching.
structure (smiles),measurement,setting,value
O=Nc1ccc2oc(=O)ccc2c1,Potency,[1],"inconclusive: 4.11 µM [activator, single point]"
same,Potency,[2],"inconclusive: 29.1 µM [activator, single point]"
same,Potency,[3],"inconclusive: 0.0532 µM [inhibitor, full curve, poor fit]"
O=C(Nc1ccc(C(=O)O)c(O)c1)c1ccccc1,Potency,[4],inactive
same,Potency,[3],"inconclusive: 50.1 µM [inhibitor, partial curve, poor fit]"
O=C(Nc1nc2ccccc2n1CCN1CCOCC1)c1cccc([N+](=O)[O-])c1,Potency,[1],"inconclusive: 0.58 µM [activator, partial curve, poor fit]"
same,Potency,[5],active: 8.2 µM
[O-][n+]1ccccc1SSc1cccc[n+]1[O-],Potency,[4],"inconclusive: 25.1 µM [falling, partial curve]"
Cc1ccc(O)c(N=Nc2ccccc2)n1,Potency,[6],active: 2.59 µM
same,Potency,[5],"inconclusive: 1.64 µM [activator, partial curve]"
same,Potency,[7],"inconclusive: 14.1 µM [activator, single point]"
same,Potency,[8],active: 10.7 µM
same,Potency,[9],active: 10.7 µM
same,Potency,[3],"inconclusive: 31.6 µM [inhibitor, partial curve, poor fit] and inconclusive: 2.24 µM [inhibitor, full curve, poor fit]"
same,Potency,[10],"inconclusive: 22.4 µM [cytotoxic, partial curve, poor fit]"
same,Potency,[11],"inconclusive: 39.8 µM [inhibitor, single point]"
same,Potency,[12],active: 10.6 µM
O=c1c2ccccc2nc2n1CCc1c-2[nH]c2ccccc12,Potency,[6],active: 8.2 µM
same,Potency,[5],"inconclusive: 1.46 µM [activator, full curve]"
same,Potency,[9],"inconclusive: 23.9 µM [inhibitor, single point]"
CN1CC(=O)N/C1=N/C(=O)Nc1cccc(Cl)c1,Potency,[5],"inconclusive: 23.1 µM [activator, partial curve]"
O=C(Nc1cccc(C(=O)Nc2ccc(S(=O)(=O)O)c3cc(S(=O)(=O)O)cc(S(=O)(=O)O)c23)c1)Nc1cccc(C(=O)Nc2ccc(S(=O)(=O)O)c3cc(S(=O)(=O)O)cc(S(=O)(=O)O)c23)c1,Potency,[1],"inconclusive: 5.8 µM [activator, single point]"
same,Potency,[13],active: 6.75 µM
same,Potency,[8],"inconclusive: 10.7 µM [inhibitor, partial curve]"
same,Potency,[3],active: 28.2 µM and active: 12.6 µM
C#C[C@]1(O)CC[C@H]2[C@@H]3CCc4cc(O)ccc4[C@H]3CC[C@@]21C,Potency,[4],"inconclusive: 15.8 µM [falling, single point]"
same,Potency,[3],"inconclusive: 56.2 µM [inhibitor, partial curve]"
NCCSSCCN,Potency,[6],inactive
OC(CCN1CCCCC1)(c1ccccc1)c1ccccc1,Potency,[4],inactive
same,Potency,[3],"inconclusive: 39.8 µM [inhibitor, single point]"
N#C/C(=C\c1ccc(O)c(O)c1)C(=O)c1ccc(O)c(O)c1,Potency,[1],inactive
same,Potency,[14],"inconclusive: 20.7 µM [activator, partial curve, poor fit]"
same,Potency,[2],"inconclusive: 32.6 µM [activator, partial curve, poor fit]"
same,Potency,[13],active: 1.69 µM
same,Potency,[8],active: 0.757 µM
same,Potency,[9],"inconclusive: 37.9 µM [inhibitor, single point]"
O=c1[nH]cc(F)c(=O)[nH]1,Potency,[5],inactive
OC[C@H]1O[C@H](n2cnc3c(N[C@H]4CCC[C@@H]4O)ncnc32)[C@H](O)[C@@H]1O,Potency,[6],"inconclusive: 1.16 µM [activator, full curve]"
same,Potency,[5],"inconclusive: 18.3 µM [activator, partial curve, poor fit]"
Oc1cc(O)cc(/C=C/c2ccc(O)c(O)c2)c1,Potency,[6],active: 3.66 µM
same,Potency,[5],"inconclusive: 1.16 µM [activator, partial curve, poor fit]"
same,Potency,[8],active: 23.9 µM
same,Potency,[10],"inconclusive: 31.6 µM [cytotoxic, partial curve]"
Cc1[nH]cnc1CN1CCc2c(c3ccccc3n2C)C1=O,Potency,[4],inactive
O=c1c(-c2ccc(O)cc2)coc2cc(O)cc(O)c12,Potency,[6],active: 9.2 µM
same,Potency,[5],"inconclusive: 13 µM [activator, partial curve]"
same,Potency,[2],inactive
Cc1ccc(S(=O)(=O)/C=C/C#N)cc1,Potency,[6],"inconclusive: 29.1 µM [activator, single point]"
same,Potency,[5],active: 20.6 µM
same,Potency,[15],"inconclusive: 25.9 µM [inhibitor, single point]"
same,Potency,[11],active: 10 µM
O=S1(=O)c2cccc3cccc(c23)N1CCCN1CCN(c2ccc(F)cc2)CC1,Potency,[3],"inconclusive: 17.8 µM [inhibitor, full curve]"
O=c1c(O)c(-c2ccc(O)cc2)oc2cc(O)cc(O)c12,Potency,[3],"inconclusive: 39.8 µM [inhibitor, partial curve, poor fit]"

# — PubChem BioAssay (NCATS)
